PMC11268115
Results are given in words; binding and its absence hold for the method and conditions named. In cells and extracts the contact can be indirect. Some results given as binding are weak or reduced against the parent protein; the word gives no strength. For part of these data: Tags and fused reporters may be left off the sequences shown. Values belong to the binder of their own block, whether it stands above or below them.

By UniProt entry, the sequences of proteins in these tests, tags left out.
UniProt Q13490: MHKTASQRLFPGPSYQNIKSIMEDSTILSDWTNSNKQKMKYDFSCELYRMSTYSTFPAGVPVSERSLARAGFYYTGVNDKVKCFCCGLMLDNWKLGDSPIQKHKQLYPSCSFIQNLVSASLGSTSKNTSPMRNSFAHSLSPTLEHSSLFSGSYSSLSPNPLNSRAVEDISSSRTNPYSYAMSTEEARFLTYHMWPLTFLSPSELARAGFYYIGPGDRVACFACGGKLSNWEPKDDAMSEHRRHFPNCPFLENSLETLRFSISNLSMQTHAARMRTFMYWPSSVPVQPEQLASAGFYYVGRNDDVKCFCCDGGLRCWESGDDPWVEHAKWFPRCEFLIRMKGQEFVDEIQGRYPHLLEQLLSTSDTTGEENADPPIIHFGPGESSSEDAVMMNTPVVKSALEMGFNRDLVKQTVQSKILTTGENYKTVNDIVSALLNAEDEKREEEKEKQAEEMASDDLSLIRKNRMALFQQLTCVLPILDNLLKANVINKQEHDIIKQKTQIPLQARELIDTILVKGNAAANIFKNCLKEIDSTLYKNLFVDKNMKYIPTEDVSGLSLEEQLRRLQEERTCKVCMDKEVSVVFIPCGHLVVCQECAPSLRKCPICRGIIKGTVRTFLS
UniProt P98170: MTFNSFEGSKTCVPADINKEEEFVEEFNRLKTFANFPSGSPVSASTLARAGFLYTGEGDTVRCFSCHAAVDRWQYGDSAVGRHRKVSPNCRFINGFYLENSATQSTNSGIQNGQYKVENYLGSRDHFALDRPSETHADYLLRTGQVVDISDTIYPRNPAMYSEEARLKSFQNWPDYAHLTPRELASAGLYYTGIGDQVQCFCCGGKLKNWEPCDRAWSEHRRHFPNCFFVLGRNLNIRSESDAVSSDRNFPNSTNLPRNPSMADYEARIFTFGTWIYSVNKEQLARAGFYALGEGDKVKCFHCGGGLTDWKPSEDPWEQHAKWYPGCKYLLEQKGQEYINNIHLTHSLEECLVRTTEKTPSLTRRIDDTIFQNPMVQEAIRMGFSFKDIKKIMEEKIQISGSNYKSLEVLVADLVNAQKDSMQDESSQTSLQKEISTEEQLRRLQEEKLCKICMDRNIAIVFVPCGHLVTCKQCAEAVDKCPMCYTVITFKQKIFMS
UniProt O15392: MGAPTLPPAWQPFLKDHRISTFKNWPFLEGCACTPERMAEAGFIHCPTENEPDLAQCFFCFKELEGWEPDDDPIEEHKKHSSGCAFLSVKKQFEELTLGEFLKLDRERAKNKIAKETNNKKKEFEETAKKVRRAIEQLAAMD
UniProt Q07820: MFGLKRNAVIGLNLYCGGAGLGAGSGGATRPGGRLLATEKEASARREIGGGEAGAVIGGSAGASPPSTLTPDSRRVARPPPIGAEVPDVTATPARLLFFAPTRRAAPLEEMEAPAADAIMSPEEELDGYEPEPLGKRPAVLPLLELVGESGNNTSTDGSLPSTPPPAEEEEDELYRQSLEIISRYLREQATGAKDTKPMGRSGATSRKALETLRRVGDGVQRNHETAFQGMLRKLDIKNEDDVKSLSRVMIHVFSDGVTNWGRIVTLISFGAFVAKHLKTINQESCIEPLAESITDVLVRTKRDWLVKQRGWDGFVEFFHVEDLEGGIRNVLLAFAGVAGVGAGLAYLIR
UniProt Q04206: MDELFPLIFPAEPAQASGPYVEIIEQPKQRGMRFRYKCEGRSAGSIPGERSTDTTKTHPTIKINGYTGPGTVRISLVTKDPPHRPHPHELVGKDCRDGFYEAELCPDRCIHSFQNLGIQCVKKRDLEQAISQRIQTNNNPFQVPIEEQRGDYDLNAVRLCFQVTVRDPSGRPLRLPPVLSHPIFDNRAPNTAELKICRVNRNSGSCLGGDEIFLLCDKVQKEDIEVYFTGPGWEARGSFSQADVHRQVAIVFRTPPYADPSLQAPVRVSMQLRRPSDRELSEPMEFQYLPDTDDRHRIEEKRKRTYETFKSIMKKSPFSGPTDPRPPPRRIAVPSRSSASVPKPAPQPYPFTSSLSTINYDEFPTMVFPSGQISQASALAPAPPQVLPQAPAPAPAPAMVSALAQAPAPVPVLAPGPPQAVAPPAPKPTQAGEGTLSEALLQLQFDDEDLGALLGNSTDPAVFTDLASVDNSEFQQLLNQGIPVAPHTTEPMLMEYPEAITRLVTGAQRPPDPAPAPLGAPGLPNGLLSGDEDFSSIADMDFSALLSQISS
UniProt Q07817: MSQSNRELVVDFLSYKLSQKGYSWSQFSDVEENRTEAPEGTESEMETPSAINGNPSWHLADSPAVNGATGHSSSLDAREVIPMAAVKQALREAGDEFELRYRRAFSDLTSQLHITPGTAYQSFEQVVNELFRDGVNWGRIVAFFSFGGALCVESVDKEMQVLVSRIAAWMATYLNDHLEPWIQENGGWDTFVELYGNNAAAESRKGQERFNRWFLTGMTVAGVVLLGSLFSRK

What was measured:
[1] = target: Myc-cIAP1 (UniProt Q13490); assay: co-IP; HEK-293 cells cotransfected with tagged plasmids, lysed after 24 h in cell lysis buffer with protease inhibitors; immunoprecipitation with Myc-Tag, HA-Tag or anti-Flag (M2) magnetic beads, Western blot of the tags
[2] = target: Myc-XIAP (UniProt P98170); assay: as above
[3] = target: endogenous survivin (human (endogenous in HCT-8 and HEK-293)) (UniProt O15392); assay: co-IP; HCT-8 cell lysates, endogenous proteins; immunoprecipitation with anti-cIAP1 or anti-survivin antibody, control rabbit IgG isotype; Western blot
[4] = target: endogenous cIAP1 (human (endogenous in HCT-8 and HEK-293)) (UniProt Q13490); assay: as above
[5] = target: HA-survivin (UniProt O15392); assay: co-IP; HEK-293 cells cotransfected with tagged plasmids, lysed after 24 h in cell lysis buffer with protease inhibitors; immunoprecipitation with Myc-Tag, HA-Tag or anti-Flag (M2) magnetic beads, Western blot of the tags
[6] = target: Flag-Mcl-1 (UniProt Q07820); assay: as above
[7] = target: Flag-p65 (UniProt Q04206); assay: as above
[8] = target: Flag-Bcl-xL (UniProt Q07817); assay: as above
[9] = target: endogenous survivin (human (endogenous in HCT-8 and HEK-293)) (UniProt O15392); assay: co-IP; HEK-293 cells transfected with empty vector or Myc-USP36; immunoprecipitation of endogenous proteins with anti-cIAP1 or anti-survivin antibody; Western blot
[10] = target: endogenous cIAP1 (human (endogenous in HCT-8 and HEK-293)) (UniProt Q13490); assay: as above

B1: HA-USP36 (Flag-HA-USP36), full length, WT (enzyme, UniProt Q9P275 1-1123)
chain: MPIVDKLKEALKPGRKDSADDGELGKLLASSAKKVLLQKIEFEPASKSFSYQLEALKSKYVLLNPKTEGASRHKSGDDPPARRQGSEHTYESCGDGVPAPQKVLFPTERLSLRWERVFRVGAGLHNLGNTCFLNATIQCLTYTPPLANYLLSKEHARSCHQGSFCMLCVMQNHIVQAFANSGNAIKPVSFIRDLKKIARHFRFGNQEDAHEFLRYTIDAMQKACLNGCAKLDRQTQATTLVHQIFGGYLRSRVKCSVCKSVSDTYDPYLDVALEIRQAANIVRALELFVKADVLSGENAYMCAKCKKKVPASKRFTIHRTSNVLTLSLKRFANFSGGKITKDVGYPEFLNIRPYMSQNNGDPVMYGLYAVLVHSGYSCHAGHYYCYVKASNGQWYQMNDSLVHSSNVKVVLNQQAYVLFYLRIPGSKKSPEGLISRTGSSSLPGRPSVIPDHSKKNIGNGIISSPLTGKRQDSGTMKKPHTTEEIGVPISRNGSTLGLKSQNGCIPPKLPSGSPSPKLSQTPTHMPTILDDPGKKVKKPAPPQHFSPRTAQGLPGTSNSNSSRSGSQRQGSWDSRDVVLSTSPKLLATATANGHGLKGNDESAGLDRRGSSSSSPEHSASSDSTKAPQTPRSGAAHLCDSQETNCSTAGHSKTPPSGADSKTVKLKSPVLSNTTTEPASTMSPPPAKKLALSAKKASTLWRATGNDLRPPPPSPSSDLTHPMKTSHPVVASTWPVHRARAVSPAPQSSSRLQPPFSPHPTLLSSTPKPPGTSEPRSCSSISTALPQVNEDLVSLPHQLPEASEPPQSPSEKRKKTFVGEPQRLGSETRLPQHIREATAAPHGKRKRKKKKRPEDTAASALQEGQTQRQPGSPMYRREGQAQLPAVRRQEDGTQPQVNGQQVGCVTDGHHASSRKRRRKGAEGLGEEGGLHQDPLRHSCSPMGDGDPEAMEESPRKKKKKKRKQETQRAVEEDGHLKCPRSAKPQDAVVPESSSCAPSANGWCPGDRMGLSQAPPVSWNGERESDVVQELLKYSSDKAYGRKVLTWDGKMSAVSQDAIEDSRQARTETVVDDWDEEFDRGKEKKIKKFKREKRRNFNAFQKLQTRRNFWSVTHPAKAASLSYRR
binding [1]: binds
binding [2]: no binding

B2: endogenous USP36 (enzyme, UniProt Q9P275 1-1123)
chain: B1 chain
binding [3]: binds
binding [4]: binds

binding [6]: no binding
binding [7]: no binding
binding [8]: no binding
B3: Myc-USP36 (ubiquitin-specific protease 36), full length, WT (enzyme, UniProt Q9P275 1-1123)
chain: B1 chain
binding [5]: binds
binding [9]: binds
binding [10]: binds

B4: Myc-USP36 (1–420 aa), N-terminal USP domain (domain or fragment, UniProt Q9P275 1-420)
chain: MPIVDKLKEALKPGRKDSADDGELGKLLASSAKKVLLQKIEFEPASKSFSYQLEALKSKYVLLNPKTEGASRHKSGDDPPARRQGSEHTYESCGDGVPAPQKVLFPTERLSLRWERVFRVGAGLHNLGNTCFLNATIQCLTYTPPLANYLLSKEHARSCHQGSFCMLCVMQNHIVQAFANSGNAIKPVSFIRDLKKIARHFRFGNQEDAHEFLRYTIDAMQKACLNGCAKLDRQTQATTLVHQIFGGYLRSRVKCSVCKSVSDTYDPYLDVALEIRQAANIVRALELFVKADVLSGENAYMCAKCKKKVPASKRFTIHRTSNVLTLSLKRFANFSGGKITKDVGYPEFLNIRPYMSQNNGDPVMYGLYAVLVHSGYSCHAGHYYCYVKASNGQWYQMNDSLVHSSNVKVVLNQQAYVLFY
binding [5]: binds

binding [1]: binds
B5: HA-USP36 (801–1121 aa), C-terminal domain (domain or fragment, UniProt Q9P275 801-1121)
chain: ASEPPQSPSEKRKKTFVGEPQRLGSETRLPQHIREATAAPHGKRKRKKKKRPEDTAASALQEGQTQRQPGSPMYRREGQAQLPAVRRQEDGTQPQVNGQQVGCVTDGHHASSRKRRRKGAEGLGEEGGLHQDPLRHSCSPMGDGDPEAMEESPRKKKKKKRKQETQRAVEEDGHLKCPRSAKPQDAVVPESSSCAPSANGWCPGDRMGLSQAPPVSWNGERESDVVQELLKYSSDKAYGRKVLTWDGKMSAVSQDAIEDSRQARTETVVDDWDEEFDRGKEKKIKKFKREKRRNFNAFQKLQTRRNFWSVTHPAKAASLSY
